In the RNAGym collection of RNA variant scans (doi:10.7554/elife.90254):
The source gives no read counts; variants with many changes may rest on few reads.

B1: LINE1-mini (parent)
chain: GGCAGAGCUCAACACAGCGUGGCAAAGUGGCUGUGGCUAGACUGCC

Variants of: B1
Assay: self-cleavage, relative activity (ratio to wild type); higher = more cleavage; in vitro, sequencing; the parent is a self-cleaving ribozyme

| Variant | self-cleavage |
| --- | --- |
| GUCAGAGCUCAACACAGCGUGGCAAAAUGGCUGUGGUUAGACCGCC | 0.03 |
| GUCAGAGCUCAACACAGCGUGGCAAAGAGGCUGCGGAUAGACUGCC | 0.02 |
| GUCAGAGCACAACACAGCGUGGCAAAGUGGCUGUGGCUAGACUGCA | 0.12 |
| GUCAGAGCUCAACACAGCGUGGCAAAGUGGCAGUGGCUAGACUGCA | 0.03 |
| GUCAGAGCUCAACACAGCGUGGCAAACUGGCUGUGGAUAGACUGCC | 0.1 |
| GUCAGAGCUCAACACAGCGUGGCAAAGUCGCUGUGACUAGACUGCC | 0 |
| GUCAGAGCGCAACACCGCGUGGCAAAGUGGCUGUGGCUAGACUGCC | 0.14 |
| GUCAGAGCUCAACACAGCGUGGCAAAGUGGCUGUGCCUAGACUGUC | 0.17 |
| GUCAGAGCUCAACACAGCGUGGCAAAGUGGCAGUUGCUAGACUGCC | 0.04 |
| GUCAGAGCUCAACACAGCGUGGCAAAAAGGCUGUGGCCAGACUGCC | 0.01 |
| GUCAGAGCUCAACACAGCGUGGCAAAGUGGCUGUGGCUACACUGCU | 0 |
| GUCAGAGCUCAACACAGCGUGCCAAAGUGGCUGUGGCUACAAUGCC | 0.02 |
| GUCAGAGCUCAACACAGCGUGGCAAAGUGACUAUGGCUAGACUGCC | 0.1 |
| GUCAGAGCUCAACACAGCGUGGCAAAGUGACUGUGGCCAGACUGGC | 0.02 |
| GUCAGAGCUCAACACAGCGUGGCAAAUUGGCUGUGGCUAGACUCCC | 0.05 |
| GUCAGAGCGCAAGACAGCGGGGCAAAGUGGUUGUGGCUAUACUGCC | 0.03 |
| GUCAGAGCCCAACAAAGGGUGGCAAAGUGCCUGUGGAUAGACUGCC | 0 |
| GUCAGAGCUCAACACAGCGUGUCAAAGUGUUUGUGGCUAGACUGCC | 0.02 |
| GUCAGAGCUCAACACAGCGUGGCAAAUUGGCUGUUGGUAGACUGCC | 0.02 |

| Variant | self-cleavage |
| --- | --- |
| GUCAGAGCGCACCACAGCUUGUCAAAGUGGCUGUGGCUAGACUGCC | 0.01 |
| GUCAGAGCGCAGCACAGCGUGGCAAAUUGGCUGUGGCUAGACUGCC | 0.01 |
| GUCAGAGCGCAACAAAGCAUGGCAAAGUGGCUGUGGCUAGACUGCC | 0.02 |
| GUCAGAGCUCAACACAGCGCGGCAAAGUGGCGGUGGCUAGCUUGCC | 0.08 |
| GUCAGAGCUCAACACAGCGUGGCAAAGUGGCUGUGUAUAGACUGCC | 0 |
| GUCAGAGCACAACCCAGCGUGGCAAAGUGGCAGUGGCUAGAAUCCC | 0.03 |
| GUCAGAGCUCAACACAGCGUGGCAAAGUCACUGUGGCUAGACUACC | 0.1 |
| GUCAGAGCUCAACACAGCGUGGCAAAGUUGCUGUGGCUAGGCUGCC | 0.04 |
| GUCAGAGCGCAACACAGCGUGGCAAAGUUGCUGUGGCUAGACUGCC | 0.04 |
| GUCAGAGCUCAACACAGCGUGGCAAAGCGGCCGUGGCGAGACUGCC | 0.01 |
| GUCAGAGCUCAACACAGCGUGGCAAAGUCGCGGUGGCUAGAGUGCC | 0.03 |
| GUCAGAGCUCAACACAGCGUGGCAAAGUGGCUUUGGCUAGGCUGCC | 0.04 |
| GUCAGAGCCCAACACAGCGUGGCAAGGUCGCUGUGGCUAGACUGCC | 0.02 |
| GUCAGAGCUCAACACAGCGUGACAAAGUGGCUGUGGCUAGACUACC | 0.02 |
| GUCAGAGCUCAACACAGCGUGGCAAACUGGCUGUGGCUAUACUGCC | 0.02 |
| GUCAGAGCUCAACACAGCGUGGCAAACUGGCUGUUGCUGGACUGCC | 0.03 |
| GUCAGAGCACAACACAGCAUGGCAAAGUGGCUGUGGCUAGACUGCC | 0.17 |
| GUCAGAGCGCAACACGGCGUGGCAAAGUGACUGUGGCUAGACUGCC | 0.01 |
| GGACGAGCUUAACACAGCGUGGCAAAGUCGCUGUGGCUAGACUGCC | 0.05 |

| Variant | self-cleavage |
| --- | --- |
| GUCAGAGCUCAACACAGCGGGGCAAAAUGGCUGUGGCUGGACUGCC | 0 |
| GUCAGAGCGCAACACAGCGUGGCAAAGUGGCUGUUGCUAGACUGCA | 0.01 |
| GUCAGAGCUCAACACAGCGUGGCAAAGUGGCUGCGGCUAGAUUGCC | 0.04 |
| GUCAGAGCUCAACACAGCGUGGCAAAGUGACUGUAGCUAGACUGCC | 0.02 |
| GUCAGAGCUCAACACAGCGUGGCAAAGUGCCUGUGGAUAGACUGCC | 0.21 |
| GUCAGAGCUCAACACAGCGGCGCAAAGUGGCUGUGGCUAGACUGCC | 0.07 |
| GUCAGAGCUCAACACAGCGUGGCAAAGUGACUGUGGUUAGACUGCC | 0.01 |
| GUCAGAGCUCAACACAGCGUGGCAAAGUGGCUUUCGCUAGACUGCC | 0.02 |
| GUCAGAGCGCAAUACAGCGUGGCAAAGUGGCUUUGGCUAGACUGCC | 0.02 |
| GUCAGAGCUCAACACAGCGUGGCAAAGUGUCUGUGGCUAGACUUCC | 0.01 |
| GUCAGAGCUCAACACAGCGUGGCAAAGUGGCUGUCGCUAGACUACC | 0.02 |
| GUCAGAGCUCAACACAGCGUGGCAAAGUGGCUGUGUCUGGACUGCC | 0 |
| GUCAGAGCUCAACACAGCGUGUCAAAGUGGCUGUGGCUAGACUGAC | 0.24 |
| GUCAGAGCCUAACACAGCGUGGCAAAGUGGCUGCGGCUAGUCUGCC | 0.03 |
| GUCAGAGCGCAAAAGAGCUUGGCAAAUUGGCUAUGGCUAGACUGCC | 0.01 |
| GGACGAGCUCAACCCAGCGUGGCAAAGUGGCUGUCGCUAGAAUGCC | 0.07 |
| GUCAGAGCUCAACACAGCGUGGCAAAUUGGCUGAGGCUAGACUGCC | 0.02 |
| GUCAGAGCUCAACACAGCGCGGUAUAGUGGCUGUGGUUAGACUGCC | 0.01 |
